Assay results: PubChem BioAssay AID485294 (National Center for Advancing Translational Sciences (NCATS), 2010)
In all, about 370,000 compounds went through this assay and about 150 (0.041%) were called active. The inconclusive results got no clear call from the source; some entries with a clear call stand among them for comparison. The call rests on the fitted dose curve; in most records, active means well fitted inhibition curve with a large enough effect; inconclusive means small, poorly fitted or top-dose-only effect; inactive means flat fitted curve, though single readings scatter. No potency is given beside an inconclusive call; the fits are too rough.

target: Beta-lactamase (Escherichia coli (strain K12)) (UniProt P00811); assay: qHTS Inhibitors of AmpC Beta-Lactamase (assay with detergent); details: AmpC hydrolysis of nitrocefin, absorbance 480 nm, 0.01% Triton; activity change, negative = inhibition: at 114 µM (top of the series); further: nearly all actives have a fitted effect of over 25% in size;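 on activity change, negative = inhibition: 0% = no-compound wells and -100% = no-enzyme wells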
In short: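 20 mM phosphate pH 7.0 + 0.01% (detergent screen) or 0.0001% Triton X-100; 5.3 nM AmpC reagent; cpd preinc 15 min RT; nitrocefin (800 uM stock) to start; A480 q20 s × 4 min; Activity was normalised to no-enzyme and no-compound control wells.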
Potency means the concentration at half of the fitted maximal effect; tags describe the fitted curve by direction and shape.

UniProt P00811, sequence (P00811 whole entry, looked up): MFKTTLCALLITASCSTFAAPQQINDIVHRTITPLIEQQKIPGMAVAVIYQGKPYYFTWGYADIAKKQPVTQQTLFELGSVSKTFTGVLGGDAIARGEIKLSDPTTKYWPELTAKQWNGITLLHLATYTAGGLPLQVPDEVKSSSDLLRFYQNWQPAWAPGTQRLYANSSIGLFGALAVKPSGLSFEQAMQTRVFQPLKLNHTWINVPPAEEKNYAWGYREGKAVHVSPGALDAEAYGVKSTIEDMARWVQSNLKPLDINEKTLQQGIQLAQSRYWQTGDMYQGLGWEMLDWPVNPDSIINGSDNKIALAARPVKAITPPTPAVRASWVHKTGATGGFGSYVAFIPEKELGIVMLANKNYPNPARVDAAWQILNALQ

| SMILES | Potency | activity change, negative = inhibition |
| --- | --- | --- |
| Cc1nnc(SCC(=O)N2CCc3ccccc3C2)s1 | inconclusive [inhibitor, partial curve, poor fit] | – |
| CSc1ccccc1OCc1cc(C(=O)NCCn2ccnc2C)no1 | – | inactive: -12.3% |
| Cc1nc(SCn2nnc3ccccc3c2=O)c2c(C)c(C)sc2n1 | inconclusive [inhibitor, partial curve, poor fit] | – |
| C#CCOc1ccc(C2C3=C(CC(C)(C)CC3=O)N(CC(=O)O)C3=C2C(=O)CC(C)(C)C3)cc1 | – | inactive: 0.624% |
| c1ccc(CNc2cncnc2)cc1 | inconclusive [inhibitor, full curve, poor fit] | – |
| Cc1cc(C)nc(NC(=O)c2ccc(COc3ccccc3Cl)cc2)c1 | inconclusive [inhibitor, single point] | – |
| C1=CC(c2cc3ccccc3o2)OC(CCc2ccccc2)C1 (stereo not drawn) | inconclusive [inhibitor, full curve] | – |
| CC(NC(=O)c1cccc(N2CCCC2=O)c1)c1ccc2c(c1)OCCO2 (stereo not drawn) | – | inactive: -3.51% |
| Cc1oc2nc(SCC(=O)NCCCO)nc(N)c2c1C | inconclusive [inhibitor, single point] | – |
| O=C(Nc1ncnc2c1ncn2C1OC(COC(=O)c2ccccc2)C(F)C1O)c1ccccc1 (stereo not drawn) | inconclusive [inhibitor, partial curve] | – |
| CC(C)NCCCCOc1cccc(Br)c1 | inconclusive [inhibitor, partial curve, poor fit] | – |
| O=C(CCN1CCN(CCO)CC1)N1c2ccccc2Sc2ccc(C(F)(F)F)cc21 | inconclusive [inhibitor, partial curve, poor fit] | – |
| Cn1c(=O)c2c(nc(CN3CCN(CCO)CC3)n2Cc2cccc3ccccc23)n(C)c1=O | inconclusive [inhibitor, full curve, poor fit] | – |
| COc1ccccc1/C=C1\SC(=S)N(CCC(=O)N2CCCCC2CCO)C1=O (stereo not drawn) | inconclusive [inhibitor, full curve, poor fit] | – |
| COc1cccc(N=Nc2ccc3ccccc3c2O)c1 | inconclusive [inhibitor, partial curve] | – |
| COc1ccc(-n2c(CNC(=O)COc3ccc(Cl)cc3)n[nH]c2=S)cc1 | – | inactive: -14.3% |
| COc1ccc(-n2c(Cc3cccn3C)nnc2SCC(=O)Nc2ccc(C)cc2C)cc1 | – | inactive: -5.69% |
| O=[N+]([O-])c1ccccc1S(=O)(=O)c1ccccc1[N+](=O)[O-] | inconclusive [inhibitor, full curve, poor fit] | – |
| Cc1ccc(C(=O)N(C)c2nnc(-c3ccncc3)s2)cc1 | – | inactive: -5.93% |
| Cc1cc(C(C)(C)C)c(OC(=O)[C@@H]2OC(c3ccccc3)=C[C@H]2c2ccccc2)c(C(C)(C)C)c1 | – | inactive: 7.81% |
| COc1cc(-c2noc(C)c2C(=O)NCCc2c[nH]c3ccccc23)cc(OC)c1OC | inconclusive [inhibitor, full curve] | – |
| Cc1[nH]c(C(=O)N/N=C/c2ccc(C(=O)O)cc2)c(C)c1C(=O)N/N=C/c1ccc(C(=O)O)cc1 | inconclusive [inhibitor, partial curve, poor fit] | – |

| SMILES | Potency | activity change, negative = inhibition |
| --- | --- | --- |
| O=C(CN(C(=O)CCC(=O)Nc1ccccn1)c1cccc(F)c1)NCc1ccco1 | inconclusive [inhibitor, single point] | – |
| CC(Sc1nncn1C)C(=O)Nc1nnc(C(C)C)s1 (stereo not drawn) | inconclusive [inhibitor, full curve, poor fit] | – |
| O=C(CSc1nc2ccccc2[nH]1)NCc1ccco1 | inconclusive [inhibitor, full curve, poor fit] | – |
| COc1ccc(C(CC(=O)Nc2ccccc2OC)n2cccc2)cc1 (stereo not drawn) | inconclusive [inhibitor, partial curve, poor fit] | – |
| Cc1ccc(NC(=O)C2CCCN2C(=O)NC2CCCCC2)c(C)c1 (stereo not drawn) | inconclusive [inhibitor, single point] | – |
| O=C(NC1CCCCC1)c1cc(Nc2cccc(C(F)(F)F)c2)nc2ccccc12 | – | inactive: -4.34% |
| CCSc1nnc(NC(=O)c2csc(C)c2)s1 | inconclusive [inhibitor, single point] | – |
| Cc1ccccc1/C(N)=N/OC(=O)/C=C/c1ccccc1 | inconclusive [inhibitor, full curve, poor fit] | – |
| CN1CCN(CC(=O)Nc2ccc([N+](=O)[O-])cc2C(=O)c2ccccc2)CC1 | inconclusive [inhibitor, full curve, poor fit] | – |
| CCOc1ccc(NC(=O)Cn2c(=O)n(Cc3ccco3)c(=O)c3oc4ccccc4c32)cc1 | – | inactive: 8.34% |
| O=C(NC1CCCC1)c1cc(-c2ccc(Cl)c(Cl)c2)on1 | – | inactive: 1.17% |
| CCn1c(=O)cc(OCC(=O)Nc2ccc(OC)c(OC)c2)c2ccccc21 | inconclusive [inhibitor, partial curve] | – |
| CCCCC(=O)Nc1ccc(NCc2ccc(C)s2)cc1 | inconclusive [inhibitor, single point] | – |
| Cn1cccc1-c1nc2ccc(NC(=O)c3ccccc3)cc2[nH]1 | – | inactive: 0.285% |
| COc1ccc(/C=C2\CCc3ccccc3C2=O)cc1O | inconclusive [inhibitor, full curve, poor fit] | – |
| COc1ccc(-c2csc(N(CCCN(C)C)C(=O)c3ccc(Br)cc3)n2)cc1 | inconclusive [inhibitor, partial curve, poor fit] | – |
| COc1cc2cc(CN(Cc3nnnn3Cc3ccco3)C3CCCCC3)c(=O)[nH]c2cc1OC | inconclusive [inhibitor, full curve, poor fit] | – |
| O=C(Nc1nnc(-c2ccc(F)cc2)o1)c1cc(Cl)sc1Cl | inconclusive [inhibitor, partial curve, poor fit] | – |
| COCCNC(=O)CCc1nnc2ccc(N3CCC(C)CC3)nn12 | – | inactive: -8.64% |
| COc1ccc(-n2c(C)c(C(C)=O)c3cc(OC(C)=O)ccc32)cc1 | – | inactive: -14.4% |
| COc1ccc(CC(=O)Nc2cccc(-c3csc(C)n3)c2)cc1 | inconclusive [inhibitor, full curve, poor fit] | – |
